Data: patent publication US12696899B2, “Microbiocidal 2-acylamino-thiazole-4-carboxamide derivatives” (SYNGENTA CROP PROTECTION AG, priority 2018, dated 2026)

Legend:
[1] = tested on: Puccinia recondita f. sp. tritici; experiment: Example B13 Puccinia recondita f. sp. tritici/wheat/leaf disc preventative (brown rust); settings: foliar, wheat leaf disc preventative, compared to untreated control
Procedure: Puccinia recondita f. Sp. Tritici/Wheat/Leaf Disc Preventative (Brown Rust)
Wheat leaf segments cv. Kanzler are placed on agar in multiwell plates (24-well format) and sprayed with the formulated test compound diluted in water. The leaf disks are inoculated with a spore suspension of the fungus 1 day after application. The inoculated leaf segments are incubated at 19° C. and 75% rh under a light regime of 12 h light/12 h darkness in a climate cabinet and the activity of a compound is assessed as percent disease control compared to untreated when an appropriate level of disease damage appears in untreated check leaf segments (7-9 days after application).

[2] = tested on: Blumeria graminis f. sp. tritici (Erysiphe graminis f. sp. tritici); experiment: Example B4 Blumeria graminis f. sp. tritici/wheat/leaf disc preventative (powdery mildew); settings: foliar, read-out: control of Blumeria graminis f. sp. tritici
Procedure: Blumeria graminis f. Sp. Tritici (Erysiphe graminis f. Sp. Tritici)/Wheat/Leaf Disc Preventative (Powdery Mildew on Wheat)
Wheat leaf segments cv. Kanzler are placed on agar in a multiwell plate (24-well format) and sprayed with the formulated test compound diluted in water. The leaf disks are inoculated by shaking powdery mildew infected plants above the test plates 1 day after application. The inoculated leaf disks are incubated at ° C. and 60% rh under a light regime of 24 h darkness followed by 12 h light/12 h darkness in a climate chamber and the activity of a compound is assessed as percent disease control compared to untreated when an appropriate level of disease damage appears on untreated check leaf segments (6-8 days after application).

COCC(=O)N(c1cc(F)nc(F)c1)c1nc(C(=O)NC2CCC23CCCC3)c(C)s1 (centres unmarked) [I.c.600, 2-[(2,6-difluoro-4-pyridyl)-(2-methoxyacetyl)amino]-5-methyl-N-spiro[3.4]octan-3-yl-thiazole-4-carboxamide]
pest or weed control at 200 ppm [1]: ≥ 80% | pest or weed control at 200 ppm [2]: ≥ 80%
